# Results as given in the BET-seq Pho4 binding data (Le et al. 2018).
# The list shows a part of the results. Values were computed here from the reads of four pooled replicates and scatter widely.
# Target: T1, Pho4 (S. cerevisiae) (UniProt P07270)
# T1 sequence: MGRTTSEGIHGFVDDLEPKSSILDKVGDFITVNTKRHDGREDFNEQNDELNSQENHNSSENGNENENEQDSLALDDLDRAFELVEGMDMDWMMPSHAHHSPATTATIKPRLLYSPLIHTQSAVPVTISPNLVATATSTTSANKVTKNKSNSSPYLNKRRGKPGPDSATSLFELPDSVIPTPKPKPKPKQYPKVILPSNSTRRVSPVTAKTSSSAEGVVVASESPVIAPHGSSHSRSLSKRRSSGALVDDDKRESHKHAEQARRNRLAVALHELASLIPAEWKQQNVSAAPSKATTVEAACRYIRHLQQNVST
# Test: relative binding free energy (BET-seq); higher = weaker binding
# Conditions: reference: library average
row,Sequence,relative binding free energy
1,CTTTGCACGTGTATGT,-0.04 kcal/mol
2,GGCTTCACGTGTTTTC,0.42 kcal/mol
3,AGGATCACGTGTCTTG,0.3 kcal/mol
4,AGGTTCACGTGAATAG,0.28 kcal/mol
5,CGTATCACGTGGCGGG,0.02 kcal/mol
6,GCGTACACGTGGTAGT,0.02 kcal/mol
7,GGTTTCACGTGTATTG,0.33 kcal/mol
8,TCTTTCACGTGGGTAG,0.07 kcal/mol
9,GTTTACACGTGATTGA,0.24 kcal/mol
10,TGATTCACGTGAGGAG,0.45 kcal/mol
11,GGGGACACGTGCGTAT,0.05 kcal/mol
12,TATTTCACGTGTGAAG,0.34 kcal/mol
13,TAAGTCACGTGGGTTA,-0.02 kcal/mol
14,TAGTTCACGTGACGTT,0.31 kcal/mol
15,TATCTCACGTGTGGTT,0.09 kcal/mol
16,TGGTGCACGTGTCAGT,-0.1 kcal/mol
17,GTGGTCACGTGACTGA,0.26 kcal/mol
18,ATTCGCACGTGTGGGG,-0.13 kcal/mol
19,ATGTTCACGTGCGGTT,0.23 kcal/mol
20,TTGTGCACGTGCGGTG,-0.13 kcal/mol
21,AGATGCACGTGGGTAG,-0.17 kcal/mol
22,TTATTCACGTGGGTGA,0.27 kcal/mol
23,TATTTCACGTGGCCGT,0.36 kcal/mol
24,ATAGTCACGTGGGGAA,-0.03 kcal/mol
25,GCATTCACGTGGATTG,0.19 kcal/mol

row,Sequence,relative binding free energy
1,ATTCACACGTGATATT,0.32 kcal/mol
2,TTGGACACGTGTGCTG,0.01 kcal/mol
3,TGTGACACGTGTGATT,0.18 kcal/mol
4,TAGATCACGTGAGGAA,0.38 kcal/mol
5,GGGACCACGTGTGGTT,0.11 kcal/mol
6,TATCTCACGTGCGTTA,0.34 kcal/mol
7,TTAGACACGTGTGGAA,0.17 kcal/mol
8,AGTAGCACGTGGTGGA,-0.11 kcal/mol
9,TGACTCACGTGTTGGC,0.31 kcal/mol
10,CGGTTCACGTGTGTGC,0.18 kcal/mol
11,CATCACACGTGGGGGT,-0.07 kcal/mol
12,TTAGCCACGTGATATG,0.15 kcal/mol
13,ATCCTCACGTGGGGGG,0.04 kcal/mol
14,AAGATCACGTGTTGGG,0.29 kcal/mol
15,TTCAGCACGTGTTGGA,-0.12 kcal/mol
16,TAGAGCACGTGGCCGG,-0.15 kcal/mol
17,GTAGTCACGTGTGAGC,0.27 kcal/mol
18,AATGACACGTGTAATT,0.25 kcal/mol
19,ATATTCACGTGCATAG,0.23 kcal/mol
20,TTTGTCACGTGAGCTT,0.24 kcal/mol
21,TATTGCACGTGGTCTC,-0.04 kcal/mol
22,TGGCTCACGTGTGTGG,0.39 kcal/mol
23,GTATGCACGTGGCGAT,-0.15 kcal/mol
24,TTAAACACGTGGGCGG,-0.07 kcal/mol
25,TATGTCACGTGTGTTG,0.13 kcal/mol

row,Sequence,relative binding free energy
1,GCTATCACGTGATGGT,0.17 kcal/mol
2,AGTAACACGTGGGGAT,-0.22 kcal/mol
3,AAAAGCACGTGGCGTG,-0.11 kcal/mol
4,ATGCTCACGTGTGCGT,0.27 kcal/mol
5,TACGGCACGTGTGGGC,-0.06 kcal/mol
6,AGTTACACGTGGTTCT,-0.01 kcal/mol
7,AGGGCCACGTGGTGTG,-0.25 kcal/mol
8,GGTTACACGTGGATGT,0.18 kcal/mol
9,TGAGTCACGTGGTGAG,0.03 kcal/mol
10,GTCATCACGTGGTGGG,0.01 kcal/mol
11,CGAAGCACGTGGGGGA,-0.29 kcal/mol
12,AGATGCACGTGGTCTT,-0.07 kcal/mol
13,AGCTGCACGTGGATTG,-0.11 kcal/mol
14,GGTCTCACGTGTATGT,0.04 kcal/mol
15,ACAGGCACGTGAGGAG,0.14 kcal/mol
16,TGCGGCACGTGACGGG,0 kcal/mol
17,TTTTTCACGTGCGCAA,0.45 kcal/mol
18,TAATCCACGTGGTAGG,-0.05 kcal/mol
19,TTGAACACGTGTTGGG,0.03 kcal/mol
20,CGGGGCACGTGGAAAA,0.18 kcal/mol
21,GTTATCACGTGTTACG,0.06 kcal/mol
22,ATTATCACGTGATATT,0.18 kcal/mol
23,GTGAGCACGTGTTTGT,-0.06 kcal/mol
24,GGGTGCACGTGAAGGC,0.34 kcal/mol
25,TAAAGCACGTGTGCGT,-0.13 kcal/mol

row,Sequence,relative binding free energy
1,GGAATCACGTGCGTTT,0.17 kcal/mol
2,GGACACACGTGTGGTG,0.06 kcal/mol
3,AATTACACGTGGAGTA,0 kcal/mol
4,GTAAGCACGTGGGTCT,-0.1 kcal/mol
5,TTATTCACGTGATCTA,0.26 kcal/mol
6,AGGAGCACGTGCGGAG,-0.13 kcal/mol
7,TGCGACACGTGTGTTA,0 kcal/mol
8,CGGATCACGTGTTGGG,0.16 kcal/mol
9,GGGATCACGTGAGGCG,0.23 kcal/mol
10,TGAGGCACGTGTGTCG,-0.19 kcal/mol
11,TCGGGCACGTGGATGT,-0.14 kcal/mol
12,GGCAGCACGTGATGTG,0.07 kcal/mol
13,TGTTCCACGTGGTAGG,0 kcal/mol
14,TTTGACACGTGAGCAG,0.2 kcal/mol
15,TTCTCCACGTGGTGTT,-0.04 kcal/mol
16,TTATACACGTGGGGAG,-0.01 kcal/mol
17,CGTTACACGTGTATTG,0.19 kcal/mol
18,AGATCCACGTGGAGTG,0.06 kcal/mol
19,TGGTACACGTGTCTGG,0.08 kcal/mol
20,ATAAACACGTGGTATG,-0.14 kcal/mol
21,GTTGCCACGTGTTGTT,0 kcal/mol
22,AAGTGCACGTGCAGCG,0.01 kcal/mol
23,TGATACACGTGAATTT,0.44 kcal/mol
24,AATGTCACGTGATGGG,0.26 kcal/mol
25,ATCGTCACGTGAATTT,0.5 kcal/mol

row,Sequence,relative binding free energy
1,ATATTCACGTGTCTGG,0.13 kcal/mol
2,TTTTGCACGTGATCGG,0.07 kcal/mol
3,TTTAGCACGTGTTAAG,-0.06 kcal/mol
4,TGTAGCACGTGGCGAT,-0.13 kcal/mol
5,GATAACACGTGCGTGT,-0.04 kcal/mol
6,AGGGTCACGTGAAGAG,0.13 kcal/mol
7,ATGTACACGTGGAGGA,0.06 kcal/mol
8,GTGATCACGTGTAGTG,0.17 kcal/mol
9,TTGACCACGTGGGGGC,-0.17 kcal/mol
10,TGTATCACGTGTTCTT,0.08 kcal/mol
11,GGAGACACGTGTGTGA,0.17 kcal/mol
12,AGAAACACGTGGTTGA,0.03 kcal/mol
13,TTTGGCACGTGGTTGA,-0.09 kcal/mol
14,TACTTCACGTGGTCGT,0.24 kcal/mol
15,TGTGGCACGTGAGGGT,0.14 kcal/mol
16,CGTGTCACGTGATTAA,0.2 kcal/mol
17,ATTGCCACGTGTAGGG,-0.02 kcal/mol
18,AGTTGCACGTGACGCG,0.22 kcal/mol
19,TTAGCCACGTGGGGAT,-0.23 kcal/mol
20,AGTATCACGTGTTGCT,0.16 kcal/mol
21,GGTATCACGTGGATTT,0.22 kcal/mol
22,TAGTTCACGTGAGTAC,0.53 kcal/mol
23,TATGGCACGTGGCTAG,-0.17 kcal/mol
24,TGTATCACGTGTTTTC,0.26 kcal/mol
25,ATAGTCACGTGTCAGG,0.08 kcal/mol

row,Sequence,relative binding free energy
1,GTAAACACGTGAGGTA,0.34 kcal/mol
2,CGTAGCACGTGGAGTG,-0.09 kcal/mol
3,TGTGTCACGTGAGTGG,0.31 kcal/mol
4,AGTGGCACGTGTTGAT,-0.16 kcal/mol
5,TAGATCACGTGGTATG,0 kcal/mol
6,ATCTTCACGTGTGCTG,0.24 kcal/mol
7,TGGTTCACGTGCCTTG,0.09 kcal/mol
8,CGTGACACGTGGCTGG,-0.07 kcal/mol
9,GTCGTCACGTGGTGCT,0.09 kcal/mol
10,TTGTTCACGTGATCAT,0.17 kcal/mol
11,TTGTTCACGTGAGAGC,0.41 kcal/mol
12,AGTAACACGTGGCTGG,-0.13 kcal/mol
13,GGGCTCACGTGTAATG,0.35 kcal/mol
14,ATCTTCACGTGGGGAT,0.17 kcal/mol
15,TTTGTCACGTGTCATA,-0.05 kcal/mol
16,ATTGCCACGTGTATAT,-0.03 kcal/mol
17,TGGCTCACGTGTTCGG,0.19 kcal/mol
18,TTGGTCACGTGCGTGG,0.13 kcal/mol
19,ATATGCACGTGACTTT,0.01 kcal/mol
20,GAGGTCACGTGTCTAG,0.24 kcal/mol
21,GTGGACACGTGTGAGT,0.08 kcal/mol
